{"source": "the supplement of paper PMC10132074", "key": {"[1]": {"tested_on": "Salmonella enterica serovar Paratyphi A with GyrA S83F (32 isolates)", "assay": "Isolates counted by MIC; Sensititre broth microdilution, or disc diffusion on Mueller-Hinton agar, by EUCAST 2021."}, "[2]": {"tested_on": "Salmonella enterica serovar Paratyphi A with GyrA not given (244 isolates)", "assay": "Isolates counted by MIC; Sensititre broth microdilution, or disc diffusion on Mueller-Hinton agar, by EUCAST 2021."}, "[3]": {"tested_on": "Salmonella enterica serovar Paratyphi A with GyrA S83F (32 isolates)", "assay": "Isolates counted by inhibition zone diameter, 5 µg disc; Sensititre broth microdilution, or disc diffusion on Mueller-Hinton agar, by EUCAST 2021."}, "[4]": {"tested_on": "Salmonella enterica serovar Paratyphi A with GyrA not given (244 isolates)", "assay": "Isolates counted by inhibition zone diameter, 5 µg disc; Sensititre broth microdilution, or disc diffusion on Mueller-Hinton agar, by EUCAST 2021."}, "[5]": {"conditions": "inhibition zone diameter: 12 mm"}, "[6]": {"conditions": "inhibition zone diameter: 13 mm"}, "[7]": {"conditions": "inhibition zone diameter: 14 mm"}, "[8]": {"conditions": "inhibition zone diameter: 15 mm"}, "[9]": {"conditions": "inhibition zone diameter: 16 mm"}, "[10]": {"conditions": "inhibition zone diameter: 19 mm"}}, "note": "Each value is the number of isolates with that result; steps that no isolate showed are left empty. Clinical S. Paratyphi A isolates, EUCAST 2021: MIC by Sensititre broth microdilution (mg/L, higher = less susceptible) and pefloxacin 5 µg disc zone (mm, larger = more susceptible). Call: the source's susceptible or wild type [S] / resistant [R]; none for gatifloxacin. Most isolates are closely related and were not sequenced.", "data": [{"compound": "CC1(C)S[C@@H]2[C@H](NC(=O)[C@H](N)c3ccccc3)C(=O)N2[C@H]1C(=O)O", "note": "[ampicillin]", "values": [{"measurement": "isolate count", "setting": "[1]; MIC: ≤4 mg/L", "value": "32 [S]"}, {"measurement": "isolate count", "setting": "[2]; MIC: 8 mg/L", "value": "1 [S]"}, {"measurement": "isolate count", "setting": "[2]; MIC: ≤4 mg/L", "value": "243 [S]"}]}, {"compound": "CC[C@H]1OC(=O)[C@H](C)[C@@H](O[C@H]2C[C@@](C)(OC)[C@@H](O)[C@H](C)O2)[C@H](C)[C@@H](O[C@@H]2O[C@H](C)C[C@H](N(C)C)[C@H]2O)[C@](C)(O)C[C@@H](C)CN(C)[C@H](C)[C@@H](O)[C@]1(C)O", "note": "[azithromycin]", "values": [{"measurement": "isolate count", "setting": "[1]; MIC: 8 mg/L", "value": "9 [S]"}, {"measurement": "isolate count", "setting": "[1]; MIC: 16 mg/L", "value": "23 [S]"}, {"measurement": "isolate count", "setting": "[2]; MIC: 8 mg/L", "value": "81 [S]"}, {"measurement": "isolate count", "setting": "[2]; MIC: 16 mg/L", "value": "157 [S]"}, {"measurement": "isolate count", "setting": "[2]; MIC: 32 mg/L", "value": 6}]}, {"compound": "CO/N=C(\\C(=O)N[C@@H]1C(=O)N2C(C(=O)[O-])=C(C[N+]3(C)CCCC3)CS[C@H]12)c1csc(N)n1", "note": "[cefepime]", "values": [{"measurement": "isolate count", "setting": "[1]; MIC: ≤1 mg/L", "value": "32 [S]"}, {"measurement": "isolate count", "setting": "[2]; MIC: 2 mg/L", "value": "1 [S]"}, {"measurement": "isolate count", "setting": "[2]; MIC: ≤1 mg/L", "value": "243 [S]"}]}, {"compound": "C=CC1=C(C(=O)O)N2C(=O)[C@@H](NC(=O)/C(=N\\OCC(=O)O)c3csc(N)n3)[C@H]2SC1", "note": "[cefixime]", "values": [{"measurement": "isolate count", "setting": "[1]; MIC: ≤0.5 mg/L", "value": "32 [S]"}, {"measurement": "isolate count", "setting": "[2]; MIC: 1 mg/L", "value": "6 [S]"}, {"measurement": "isolate count", "setting": "[2]; MIC: ≤0.5 mg/L", "value": "238 [S]"}]}, {"compound": "CO/N=C(\\C(=O)N[C@@H]1C(=O)N2C(C(=O)O)=C(COC(C)=O)CS[C@H]12)c1csc(N)n1", "note": "[cefotaxime]", "values": [{"measurement": "isolate count", "setting": "[1]; MIC: ≤0.5 mg/L", "value": "32 [S]"}, {"measurement": "isolate count", "setting": "[2]; MIC: 1 mg/L", "value": "1 [S]"}, {"measurement": "isolate count", "setting": "[2]; MIC: ≤0.5 mg/L", "value": "243 [S]"}]}, {"compound": "CC(C)(O/N=C(\\C(=O)N[C@@H]1C(=O)N2C(C(=O)[O-])=C(C[n+]3ccccc3)CS[C@H]12)c1csc(N)n1)C(=O)O", "note": "[ceftazidime]", "values": [{"measurement": "isolate count", "setting": "[1]; MIC: ≤0.5 mg/L", "value": "32 [S]"}, {"measurement": "isolate count", "setting": "[2]; MIC: 1 mg/L", "value": "4 [S]"}, {"measurement": "isolate count", "setting": "[2]; MIC: ≤0.5 mg/L", "value": "240 [S]"}]}, {"compound": "CO/N=C(\\C(=O)N[C@@H]1C(=O)N2C(C(=O)O)=C(CSc3nc(=O)c(O)nn3C)CS[C@H]12)c1csc(N)n1", "note": "[ceftriaxone]", "values": [{"measurement": "isolate count", "setting": "[1]; MIC: ≤0.5 mg/L", "value": "32 [S]"}, {"measurement": "isolate count", "setting": "[2]; MIC: ≤0.5 mg/L", "value": "244 [S]"}]}, {"compound": "O=C(N[C@H](CO)[C@H](O)c1ccc([N+](=O)[O-])cc1)C(Cl)Cl", "note": "[chloramphenicol]", "values": [{"measurement": "isolate count", "setting": "[1]; MIC: ≤8 mg/L", "value": "32 [S]"}, {"measurement": "isolate count", "setting": "[2]; MIC: 16 mg/L", "value": "33 [R]"}, {"measurement": "isolate count", "setting": "[2]; MIC: ≤8 mg/L", "value": "211 [S]"}]}, {"compound": "O=C(O)c1cn(C2CC2)c2cc(N3CCNCC3)c(F)cc2c1=O", "note": "[ciprofloxacin]", "values": [{"measurement": "isolate count", "setting": "[1]; MIC: 0.5 mg/L", "value": "7 [R]"}, {"measurement": "isolate count", "setting": "[1]; MIC: 1 mg/L", "value": "25 [R]"}, {"measurement": "isolate count", "setting": "[2]; MIC: 0.25 mg/L", "value": "7 [R]"}, {"measurement": "isolate count", "setting": "[2]; MIC: 0.5 mg/L", "value": "153 [R]"}, {"measurement": "isolate count", "setting": "[2]; MIC: 1 mg/L", "value": "81 [R]"}, {"measurement": "isolate count", "setting": "[2]; MIC: 4 mg/L", "value": "1 [R]"}, {"measurement": "isolate count", "setting": "[2]; MIC: ≤0.03 mg/L", "value": "2 [S]"}]}, {"compound": "COc1c(N2CCNC(C)C2)c(F)cc2c(=O)c(C(=O)O)cn(C3CC3)c12", "note": "(centres undefined) [gatifloxacin]", "values": [{"measurement": "isolate count", "setting": "[1]; MIC: 0.5 mg/L", "value": 32}, {"measurement": "isolate count", "setting": "[2]; MIC: 0.06 mg/L", "value": 2}, {"measurement": "isolate count", "setting": "[2]; MIC: 0.25 mg/L", "value": 6}, {"measurement": "isolate count", "setting": "[2]; MIC: 0.5 mg/L", "value": 218}, {"measurement": "isolate count", "setting": "[2]; MIC: 1 mg/L", "value": 16}, {"measurement": "isolate count", "setting": "[2]; MIC: 2 mg/L", "value": 2}]}, {"compound": "C[C@@H](O)[C@H]1C(=O)N2C(C(=O)O)=C(S[C@@H]3CN[C@H](C(=O)N(C)C)C3)[C@H](C)[C@H]12", "note": "[meropenem]", "values": [{"measurement": "isolate count", "setting": "[1]; MIC: ≤0.06 mg/L", "value": "32 [S]"}, {"measurement": "isolate count", "setting": "[2]; MIC: 0.12 mg/L", "value": "4 [S]"}, {"measurement": "isolate count", "setting": "[2]; MIC: 0.25 mg/L", "value": "1 [S]"}, {"measurement": "isolate count", "setting": "[2]; MIC: ≤0.06 mg/L", "value": "239 [S]"}]}, {"compound": "CCn1cc(C(=O)O)c(=O)c2cc(F)c(N3CCN(C)CC3)cc21", "note": "[pefloxacin]", "values": [{"measurement": "isolate count", "setting": "[3]; [5]", "value": "2 [R]"}, {"measurement": "isolate count", "setting": "[3]; [6]", "value": "10 [R]"}, {"measurement": "isolate count", "setting": "[3]; [7]", "value": "9 [R]"}, {"measurement": "isolate count", "setting": "[3]; [8]", "value": "6 [R]"}, {"measurement": "isolate count", "setting": "[3]; [9]", "value": "4 [R]"}, {"measurement": "isolate count", "setting": "[3]; [10]", "value": "1 [R]"}, {"measurement": "isolate count", "setting": "[4]; inhibition zone diameter: 10 mm", "value": "5 [R]"}, {"measurement": "isolate count", "setting": "[4]; inhibition zone diameter: 11 mm", "value": "19 [R]"}, {"measurement": "isolate count", "setting": "[4]; [5]", "value": "99 [R]"}, {"measurement": "isolate count", "setting": "[4]; [6]", "value": "63 [R]"}, {"measurement": "isolate count", "setting": "[4]; [7]", "value": "34 [R]"}, {"measurement": "isolate count", "setting": "[4]; [8]", "value": "13 [R]"}, {"measurement": "isolate count", "setting": "[4]; [9]", "value": "2 [R]"}, {"measurement": "isolate count", "setting": "[4]; inhibition zone diameter: 17 mm", "value": "4 [R]"}, {"measurement": "isolate count", "setting": "[4]; inhibition zone diameter: 18 mm", "value": "2 [R]"}, {"measurement": "isolate count", "setting": "[4]; [10]", "value": "1 [R]"}, {"measurement": "isolate count", "setting": "[4]; inhibition zone diameter: 28 mm", "value": "2 [S]"}]}]}
